# Laboratory results published in PubChem BioAssay AID686979 (National Center for Advancing Translational Sciences (NCATS), 2013).
# Where “and” joins values, the source holds several entries; their conditions need not be identical. Equal values may be shown once. Among all 420,000 compounds or so, about 50,000 (12%) were called active. The inconclusive results got no clear call from the source; some entries with a clear call stand among them for comparison. Calls follow the shape of the dose curve; as a rule, active = well fitted inhibition curve with a large enough effect; inconclusive = small, poorly fitted or top-dose-only effect; inactive = flat fitted curve, though single readings scatter. A potency beside an inconclusive call is a rough fit, not a confirmed value.
# Assay: qHTS for Inhibitors of human tyrosyl-DNA phosphodiesterase 1 (TDP1): qHTS in cells in presence of CPT; also: nearly all actives have a fitted effect of over 55% in size
# Details: chicken DT40 Tdp1-/-;hTDP1 cells + 20 nM CPT, ATP luminescence, 48 h; activity change, negative = growth inhibition: at 46.2 µM (top of the series)
# How it was run: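 Chicken DT40 Tdp1-/- cells complemented with human TDP1, 400 cells/well, exposed to compounds plus 20 nM camptothecin for at least 48 h at 37 C; viability read as ATP content by CellTiter-Glo luminescence.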
# % is scaled to controls: 0 for no effect and ±100 for the full control effect; potency is read from the fitted curve at half-maximal effect; tags tell the direction and shape of the fitted curve.
Compound,Potency,"activity change, negative = growth inhibition"
COc1ccc(Cc2noc(CN(C)Cc3cccc(-n4cccn4)c3)n2)cc1OC,"inconclusive: 29.1 µM [inhibitor, single point]",
COc1cc(OC)cc(C(=O)NC(C)CNc2ccc(Cl)cc2[N+](=O)[O-])c1 (stereo not drawn),"inconclusive: 29.1 µM [inhibitor, single point]",
CCOc1ccccc1NC(=O)Nc1ccc2c(c1)CCC2,inactive,
Oc1ccc(-c2ccccc2)cc1CN1CCCCCC1,"inconclusive: 16.4 µM [inhibitor, partial curve]",
Cc1ccc(/C=N/n2c(C)nnc2C)o1,"inconclusive: 29.1 µM [inhibitor, single point]",
CCCN1CCN(C(=O)C(C)n2nc(C)c3sc4ccccc4c3c2=O)CC1 (stereo not drawn),"inconclusive: 23.1 µM [inhibitor, single point]",
O=C(CN1C(=O)C2(SCC(=O)N2c2cccc(F)c2)c2ccccc21)NCc1ccccc1Cl (stereo not drawn),"inconclusive: 29.1 µM [inhibitor, single point]",
O=C(/C=C/c1ccccc1)Nc1nc2n(n1)C(c1ccc(Cl)cc1)C=C(c1ccccc1)N2 (stereo not drawn),active: 20.6 µM,
CCOc1ccc(CC(=O)OCN2C(=O)c3ccccc3C2=O)cc1,inactive,
CN(C)c1ncc2nc(-c3cccc(C#N)c3)c(=O)n(C[C@H]3CCCO3)c2n1,inactive,
Cc1c(C(=O)Nc2nc3ccccc3[nH]2)oc2ccc(Br)cc12,"inconclusive: 29.1 µM [inhibitor, single point]",
CC(C)C[C@H]1CN([C@@H](CC(C)C)CN2CCC[C@@H]2CN2C(=S)NC[C@@H]2Cc2ccc(O)cc2)C(=S)N1CCc1ccccc1,active: 13 µM,
O=C(CNC(=O)c1ccccc1C(F)(F)F)N/N=C/c1cccs1,inactive,
Cn1c(NN)nc2sc3c(c2c1=O)CCC3,"inconclusive: 20.6 µM [inhibitor, partial curve]",
O=C(Nc1cccc([N+](=O)[O-])c1)Nc1cccs1,active: 23.1 µM,
CCOC(=O)c1cc(-c2ccccc2)n(CCCC(=O)Nc2cccc(C)c2)c1C,active: 16.4 µM,
CCOC(=O)c1sc2nc(C)nc(Nc3ccccc3)c2c1C,inactive,
COc1ccc(-c2nc(CSCC(=O)NC3CCCc4ccccc43)c(C)o2)cc1OC (stereo not drawn),"inconclusive: 23.1 µM [inhibitor, partial curve]",
CCc1nc2ccccc2n1CCCCOc1cccc(C)c1,"inconclusive: 29.1 µM [inhibitor, single point]",
CCCOc1ccc(NC(=O)CC2C(=O)N(c3ccc(OC)cc3)C(=O)N2CCc2ccncc2)cc1 (stereo not drawn),"inconclusive: 29.1 µM [inhibitor, single point]",
COc1cc(C(C)=O)ccc1OCC(O)CN1CCN(c2ccc(C)c(C)c2)CC1 (stereo not drawn),inactive,
CCCC(=O)N1CCC1(C)C(=O)NS(=O)(=O)c1ccc(C#N)cc1 (stereo not drawn),inactive,
Cc1cc(Oc2ccccc2)nc(SCC(=O)Nc2ccccc2)n1,"inconclusive: 32.6 µM [inhibitor, single point]",
O=C(COC(=O)/C=C/c1cccc([N+](=O)[O-])c1)NCc1ccc2c(c1)OCO2,inactive,
Cc1ccc(C)c(S(=O)(=O)N2CCN(C(=O)C(C)Sc3ccccc3)CC2)c1 (stereo not drawn),"inconclusive: 25.9 µM [inhibitor, single point]",

Compound,Potency,"activity change, negative = growth inhibition"
Cc1cc(C)cc(NS(=O)(=O)c2cnc(Cl)c(Cl)c2)c1,"inconclusive: 20.6 µM [inhibitor, single point]",
CCOc1cc(C=C2C(=O)c3ccccc3C2=O)ccc1OCC(=O)Nc1ccc(C)cc1,"inconclusive: 25.9 µM [inhibitor, single point]",
CC(/C=N/NC(=O)NC1CCCCC1)=C\c1ccccc1,active: 20.6 µM,
CC(C)CC(=O)NCC(c1ccc2c(c1)OCO2)N1CCN(c2ccc(F)cc2)CC1 (stereo not drawn),active: 16.4 µM,
COc1ccc(-c2noc(C3CCCN(C(=O)c4c(F)cccc4F)C3)n2)cc1OC (stereo not drawn),"inconclusive: 5.8 µM [inhibitor, single point]",
COCCN1C[C@@H](CO)O[C@@H](n2cnc3c(NCc4ccco4)ncnc32)C1,inactive,
O=C(Nc1cccc(-c2nnco2)c1)c1cccs1,inactive,
CCCn1cnnc1CNC(=O)[C@H]1O[C@@H](n2cnc3c(N)ncnc32)[C@H](O)[C@@H]1O,inactive,
CC(=O)c1ccccc1NC(=O)COC(=O)C1=NN(c2ccccc2)C(=O)CC1,inactive,
O=C(CCCSc1nc(-c2ccco2)cc(C(F)(F)F)n1)NCC1CCCO1 (stereo not drawn),"inconclusive: 29.1 µM [inhibitor, single point]",
CCCS(=O)(=O)c1nc(S(=O)(=O)c2ccc(C)cc2)c(NCCCOC(C)C)s1,"inconclusive: 29.1 µM [inhibitor, single point]",
COc1ccc2nc(SCC(O)c3cccc(Br)c3)[nH]c2c1 (stereo not drawn),"inconclusive: 20.6 µM [inhibitor, single point]",
O=C1NC[C@H](CCCCN2C[C@H](Cc3ccccc3)N(CCC3CCCCC3)C(=O)C2=O)N(CCc2ccccc2)C1=O,"inconclusive: 29.1 µM [inhibitor, single point]",
Clc1c(-c2nnc3n2CCCCC3)sc2ccccc12,"inconclusive: 25.9 µM [inhibitor, single point]",
c1ccc(-c2nnc(-c3ccccc3)nn2)cc1,,inconclusive: -34.7% [inhibitor]
COC(=O)c1c(NC(C)=O)sc2c1CCN(Cc1ccccc1)C2,inactive,
CN(C)C(=O)c1cc(F)ccc1Sc1cc(Cl)ccc1Cl,"inconclusive: 20.6 µM [inhibitor, single point]",
Cc1nnc(SCCN2CCOCC2)c2nn(-c3ccccc3F)c(C)c12,inactive,
CS(=O)(=O)N1CCN(c2ccccc2NC(=O)c2cccnc2Cl)CC1,inactive,
CC(N)c1csc(NC(=O)Nc2cccc(C(F)(F)F)c2)n1 (stereo not drawn),"inconclusive: 18.4 µM [inhibitor, single point]",
c1nc(NCc2ccc3c(c2)OCO3)c2[nH]cnc2n1,"inactive and inconclusive: 10 µM [inhibitor, partial curve]",
O=C(C[C@H]1C(=O)N(c2ccccc2)C[C@@H]1Cc1ccccc1)Nc1ccc(Br)cc1,active: 13 µM,
O=S1(=O)CCOC[C@H](CC2CCCCC2)N1Cc1ccc(F)cc1,active: 2.51 µM,
O=C(Cn1nc(N2CCN(c3ccccc3)CC2)ccc1=O)NCc1ccccc1F,inactive,
O=C(c1cccc(S(=O)(=O)NCc2ccccc2)c1)N1CCN(c2ccccc2)CC1,active: 6.51 µM,

Compound,Potency,"activity change, negative = growth inhibition"
Cc1nn(-c2ccc(N3CCCCC3)nn2)c(C)c1CCC(=O)NCc1ccccc1,"inconclusive: 29.1 µM [inhibitor, single point]",
Cc1ccc([C@H]2C[C@H](n3cc(C4CC4)nn3)[C@@H](O)CN2CC2CCCCC2)cc1,"inconclusive: 23.1 µM [inhibitor, single point]",
COc1ccc(-c2cn3c(n2)sc2cc(C(=O)NCCCc4ccccc4)ccc23)cc1,inactive,
CCN(CC)C(=O)CSc1nc2cc3c(cc2c(=O)n1CCCC(=O)NCc1ccc2c(c1)OCO2)OCO3,"inconclusive: 23.1 µM [inhibitor, single point]",
COc1ccc(-c2nnnn2-c2ccc(F)cc2F)cc1,inactive,
Cc1ccc(Sc2ccc(N3CCCC(C(=O)Nc4ccc(F)cc4)C3)nn2)cc1 (stereo not drawn),"inconclusive: 29.1 µM [inhibitor, single point]",
CCOc1ccc(-n2c(N)c(C(=O)NCc3ccco3)sc2=S)cc1,"inconclusive: 29.1 µM [inhibitor, single point]",
CCCCCCn1c(CN2CCCCC2)nc2c1c(=O)n(C)c(=O)n2C,"inconclusive: 18.4 µM [inhibitor, single point]",
CC(C)(O)c1ccc2c(c1)CCC1C(C)(C(=O)O)CCCC21C (stereo not drawn),inactive,
Cc1ccc(-n2c(SCC(=O)Nc3cccc(S(N)(=O)=O)c3)nc3ccccc32)cc1,active: 18.4 µM,
Cc1ccc(-c2nnc(SCC(=O)NC(C)(C)C)nc2-c2ccc(C)cc2)cc1,active: 29.1 µM,
CN1CCc2c(sc(NC(=O)c3ccc(S(=O)(=O)N4CCCCCC4)cc3)c2C(N)=O)C1,active: 18.4 µM,
CCOCCN1CCN(C2c3ccccc3CSc3ccccc32)CC1 (stereo not drawn),"inconclusive: 18.4 µM [inhibitor, single point]",
COc1ccc(CCC(C)N2CCC(Oc3ccc(C(=O)N4CCCC4)cc3)CC2)cc1 (stereo not drawn),active: 25.9 µM,
COc1ccc(-c2nc3ccncc3[nH]2)cc1OC,"inconclusive: 29.1 µM [inhibitor, single point]",
O=C(Nc1cccc(C(F)(F)F)c1)c1ccc2sc([C@H]3C[C@H](O)[C@@H](CO)O3)nc2c1,"inconclusive: 25.9 µM [inhibitor, partial curve, poor fit]",
COc1ccc(/C=N/Nc2nc(C)nc(N)n2)cc1,inactive,
Cc1cccc(C(=O)Nc2ccccc2OCc2cc(=O)n3ccccc3n2)c1,inactive,
CCOc1ccc(NC(=O)c2cn(C3CCCCC3)c(=O)c3c2c2ccccc2n3C)cc1,inactive,
CCOP(=O)(OCC)c1nc(-c2cccc([N+](=O)[O-])c2)oc1N1CCCCC1,"inconclusive: 18.4 µM [inhibitor, partial curve, poor fit]",
Cc1ccc(C(=O)N/C(=C\c2ccccc2)C(=O)OCc2ccccc2)cc1,active: 29.1 µM,
O=C(N/N=C\c1ccc(Sc2ccccn2)o1)c1cccc(Br)c1,inactive,
C=C(C)C(=O)N1CC2(CC(c3cccc(NC(=O)/C(C)=C\C)c3)=NO2)C[C@H]1C(N)=O (stereo partly drawn),,inconclusive: -1.49% [inhibitor]
